Drawing on PMC10726135, this text covers binding signal (log2 normalized intensity) for 73 sequences.

The other results are listed elsewhere or left out. At the low end of the ranking the order means little. Measured with an extract: partners may take part in the binding.

The assay has as its target T1, HNF4alpha2 (COS-7 nuclear extract) (UniProt P41235).
T1 sequence: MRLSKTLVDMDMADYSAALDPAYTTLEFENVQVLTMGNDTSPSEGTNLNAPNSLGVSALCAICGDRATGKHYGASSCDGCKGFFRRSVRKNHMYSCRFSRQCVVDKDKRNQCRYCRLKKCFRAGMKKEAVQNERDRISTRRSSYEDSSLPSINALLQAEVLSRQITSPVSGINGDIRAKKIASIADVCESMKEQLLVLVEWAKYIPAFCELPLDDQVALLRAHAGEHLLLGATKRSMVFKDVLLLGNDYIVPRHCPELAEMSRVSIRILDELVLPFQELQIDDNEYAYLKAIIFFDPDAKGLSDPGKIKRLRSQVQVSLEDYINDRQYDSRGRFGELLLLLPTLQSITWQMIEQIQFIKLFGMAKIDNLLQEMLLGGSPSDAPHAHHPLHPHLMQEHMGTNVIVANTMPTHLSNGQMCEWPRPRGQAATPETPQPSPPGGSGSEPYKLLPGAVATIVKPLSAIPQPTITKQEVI
The assay is described as follows: protein-binding microarray. To be noted: COS-7 nuclear extract on double-stranded Agilent 4x180k PBM; binding buffer, salt, pH and temperature not given; high values mean tight binding; double strand, one strand shown; sequences stand for … in …GCCTAGGGAGATTAGAGTATCGGTCGA
With GAACTGAGCAGGCCTGGGCTTGCAAAGGTC, the binding signal (log2 normalized intensity) is 2.63.
The figure for TGTACAAAGGTCACTTCTGTTCATTGATAA is 3.92; for CTGAAACATGCCTATGACCGAGGGTTAAGC it is -0.865.
As to AGGATCACCTGAGTCCAGAGGTCAAGGCTG, the binding signal (log2 normalized intensity) was found to be 3.8.
The figure for TCCAAAGAGCTCAACCTGTGAAAATTGGTA is -1.33.
Then CCATTACTTCTGTTTGCATTAGTTATATCT, with 1.4.
Then AATCCCAGGGTCAGAGGTCGCGAGGGAGAG, with 3.24.
For AGGCCAGGCATACCTTTCTTATCATAAGTA, the binding signal (log2 normalized intensity) is -0.983.
On to AACGGCAGGGTTGTGCAGGACTGCGTAACT, for which the binding signal (log2 normalized intensity) is -1.13.
The figure for GGGAAAACTTACGCACATTACTTTGATTGG is 0.391; for CCTCCCACCCCCACGGTGCGCTGCCCCTCA it is 5.24.
The figure for AAGGTCTTAAGTGTCATTAGTAACAAACAC is 1.05.
For ATGAATGCCTTGGCCTCTGCAGACATGGAC, the binding signal (log2 normalized intensity) was 1.26.
The figure for GCAGAGCAGGTTCTCAGGCCAATCATATCT is -1.06.
Then CCTTACCATTGCTTTCTTCCAAGGCTGCAA, with -0.862; and GGCCGCCCAAGCGAATATGTCAGGCTCAGG, with -0.889.
The figure for GAGCAGGAACCTTGTGGTGGTGAAAGTCAA is 0.207.
As to TCCAGGAATGGAAACCCCTGTAAGTCCAAA, the binding signal (log2 normalized intensity) is 2.69.
As to GGAGAGGATGGGGACAAAGGTCAAGAAAGC, the binding signal (log2 normalized intensity) was determined as 5.86.
AAATCCAAAGGTCAACAGCCAGCCTCAAAG: the binding signal (log2 normalized intensity) is 3.6.
Then TCTGGTGGCACACAGAGGACGTCAGGCAGA, with -0.214; and CTTACTCTCTCCCTCCTCCTTTTTTTCCCC, with 2.98.
Then AGTCCAAAATCAGTCTCAGTGGGCTAAACA, with -0.564.
Then AGAATTGGTCCTGGAACTCAAAGGTCAAAT, with 5.03; and GTTCTCCTTTCTGCCCTTTGAAGCATGTGA, with 3.07; and CCGTGGCTGGAACTCCTCCGGTCAAGATCA, with -1.18.
For the sequence GGCAGTGACTGGACCACGATCAGCCAGCAG, the binding signal (log2 normalized intensity) was -1.11.
For the sequence TAGAACCCAGGCACAGGTCCTACTCACACT, the binding signal (log2 normalized intensity) was -1.15.
Take GACTCTTGGACTCCCTGAAGAAACAGTCTT: the binding signal (log2 normalized intensity) is 0.399.
For the sequence TCAGGGGTCAATGTGCACATTCGAAGTTTT, the binding signal (log2 normalized intensity) is 4.11.
Regarding CACGTGCAAAGTACAAAGTACAGAGATGGC, the binding signal (log2 normalized intensity) came out at 3.27.
The figure for CTGGTCAGAAGAAACATGCGATACTTGACC is 2.05; for ACAACTTTTCCTCTAACCACTTTGAAATAG it is 0.611; for TTCAGAGGACTGCCCAGCTGCATCCTGTGC it is -1.1.
Then GACGTACGCTCCCAGTATGAGCGGCGCTGA, with -1.19; and GGAGTTTGTACTTTATCCTACAAGGGAGAT, with 2.01; and GACCTTGTTTTCAATGACTACCTGTTACCC, with 1.45.
The figure for GGCTGCAGAGGTTTCGCAAGGACGTGACCT is 2.92; for AAGGAGTGGAGGAAGGAAGAAGTGTTAAGG it is -0.932; for TTTCTGTATCTCTTCGCCTTGCTTATCTGG it is 1.59.
For AACACACCATGTACAGAGAGCATTCTGCTG, the binding signal (log2 normalized intensity) is -0.779.
On to TCTCTGAGCAGTCAAACTGGTTTCTTGTCT, for which the binding signal (log2 normalized intensity) was determined as 1.25.
The figure for ACGGCAAGCCATAGTTAACCCAGAAGACTG is -1; for CCACTCCAGCCTCTCCACCAGGGGACCAGG it is -1.24; for CCACAGAATCGCCCCACCCTGCCTGGGTAG it is 1.35.
As to TGTCCTTTGTCCCCCACCTGTGAAGATAAG, the binding signal (log2 normalized intensity) was found to be 3.9.
For the sequence CCTTCACTCTGGGGCAATAACCCTAGACAC, the binding signal (log2 normalized intensity) is -1.04.
Then ATTTATTTTGTGTGCTAGATACTGGAGATA, with 0.795.
The figure for AAAGCCCTCAAATACTCTGAGTAAACACAG is -1.12; for AACTCCCAGTCTGTTATCAGAGCTGGAGGA it is -1.14; for GGCGGCCGCGCGCAGGGCGGACAGCGCCGC it is -1.17.
In the case of ATCTCTTTTGTGTTAGAGGGTGGTGGGTGA, the binding signal (log2 normalized intensity) is 1.72.
Regarding ACACAGATCATATCATTTATTTGCTTAAAA, the binding signal (log2 normalized intensity) was -0.857.
On to GAGATCTAAGCGATAAGGAGGAAGGACACT, for which the binding signal (log2 normalized intensity) is -1.08.
Then TTGATCTTTGTGTACAAAGCCATCAGCACT, with 0.278; and CAAAGGTCACGTTCCAGCTGCTTCAGGAGC, with 2.67.
For TGGGAATGCCCTTTATACAGGCATGGAAGT, the binding signal (log2 normalized intensity) amounted to 1.62.
The figure for TTCTGAGCAAATATTTGGGGTATGTGCTCA is 0.428.
The figure for CCGAGCAGGACGCTACCCGCTTGGCGTAGG is -1.07; for AACCAAGATAGTGACGGAGGTGACCTTTGG it is 6.38; for TATTCCCAGGTTCCAAAGGTCACCCGTATT it is 6.51.
The figure for GGGAATGTCACAGGGGCCATGCAGGGCAGG is -1.06; for GTGAACTGGAGCAAAGGTCACTCTTGCTAT it is 4.5; for TACTTTGCTTCCAAGTTATGCAGACCTTTG it is 2.14.
As to ATCCCAAAGCTTTTTGATTGCTTATAGCTT, the binding signal (log2 normalized intensity) is -0.345.
The figure for CCACATGAATACACATAATGTGCTTATCAG is -0.605; for GGGTGCAGGGAGAAGGCAAAAATGCAGGCA it is -1.07.
Then ACAGCAAAGATGAATCATGTAACCAAAATG, with -0.449; and GTCAAAACCACCTATTCTGAAGATTGCTAG, with -1.12.
As to CCTTTGGCAATATCTCCCAGCTGGAGTCTT, the binding signal (log2 normalized intensity) is -0.0114.
Then CTGACTAGAGTGGAGTGAAGTAAGAGTAGC, with -1.12; and GGACTGCAGGGGGCCAAGGGATACCCTGAG, with -1.02.
Then ATATTTACTTATGGTTTGACCCTGCGATAA, with 2.84.
